Data taken from article PMC4336329 (PLoS ONE, 2015).
The campaign covered roughly 310,000 compounds. About 2,200 (0.71%) showed an effect of 50% or more. The effect is printed as a negative number. Some of the results follow.

Molecular target: human ether-à-go-go-related gene (hERG) potassium channel (human, UniProt Q12809)
Test: primary screen, population patch clamp on CHO cells stably expressing hERG

human ether-à-go-go-related gene (hERG) potassium channel, sequence (Q12809 whole entry, looked up): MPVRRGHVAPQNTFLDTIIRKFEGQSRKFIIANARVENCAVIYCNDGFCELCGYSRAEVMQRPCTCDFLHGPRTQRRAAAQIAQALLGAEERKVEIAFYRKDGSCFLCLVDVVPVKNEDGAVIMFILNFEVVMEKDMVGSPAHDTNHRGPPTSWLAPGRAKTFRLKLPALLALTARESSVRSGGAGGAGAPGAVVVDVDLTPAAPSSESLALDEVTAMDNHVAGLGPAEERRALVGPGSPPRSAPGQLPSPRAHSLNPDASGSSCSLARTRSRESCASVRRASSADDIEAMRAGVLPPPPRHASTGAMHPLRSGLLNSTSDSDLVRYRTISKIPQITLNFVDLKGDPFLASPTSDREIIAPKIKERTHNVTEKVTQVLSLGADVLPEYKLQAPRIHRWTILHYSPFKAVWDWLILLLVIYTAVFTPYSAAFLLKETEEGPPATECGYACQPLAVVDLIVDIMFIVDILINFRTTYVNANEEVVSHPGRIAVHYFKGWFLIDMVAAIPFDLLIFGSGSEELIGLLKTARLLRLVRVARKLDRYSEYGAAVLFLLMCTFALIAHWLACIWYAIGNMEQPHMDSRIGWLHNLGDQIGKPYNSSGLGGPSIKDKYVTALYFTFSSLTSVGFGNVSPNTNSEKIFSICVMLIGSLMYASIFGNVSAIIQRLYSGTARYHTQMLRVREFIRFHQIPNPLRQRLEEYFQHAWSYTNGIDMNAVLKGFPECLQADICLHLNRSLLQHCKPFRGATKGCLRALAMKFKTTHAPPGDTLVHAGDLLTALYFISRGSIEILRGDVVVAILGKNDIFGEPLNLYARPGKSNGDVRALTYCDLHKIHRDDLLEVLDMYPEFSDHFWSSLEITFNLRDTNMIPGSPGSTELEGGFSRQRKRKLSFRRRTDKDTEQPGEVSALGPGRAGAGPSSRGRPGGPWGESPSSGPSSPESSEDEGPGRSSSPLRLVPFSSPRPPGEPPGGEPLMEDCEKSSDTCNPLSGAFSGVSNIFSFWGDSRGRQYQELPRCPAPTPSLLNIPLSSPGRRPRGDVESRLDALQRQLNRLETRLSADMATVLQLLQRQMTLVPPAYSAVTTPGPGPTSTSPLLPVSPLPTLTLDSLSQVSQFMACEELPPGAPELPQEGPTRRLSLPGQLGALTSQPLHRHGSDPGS

SMILES	hERG current change (%, negative = inhibition) at 1uM [%]
N#Cc1ccc(C(=O)N2CCN(S(=O)(=O)c3ccc(Br)s3)CC2)cc1	-7.18
O=C(c1sc2ccccc2c1Cl)N1CCN(c2ccccn2)CC1	-7.53
Cc1ccc(CNC(=O)C2CCCN2C(=O)Nc2ccc(F)cc2)cc1 (centres unmarked)	12.9
COc1cc(OC)c(S(=O)(=O)N2CCN(C(=O)c3ccco3)CC2)cc1NC(C)=O	11
COc1ccc(Cl)cc1NC(=O)CN(C)C(=O)c1ccc(OCc2ccccc2)c(OC)c1	12.4
Cc1ccc(C)c(SCc2nc3sc(C(=O)O)c(C)c3c(=O)[nH]2)c1	14.4
NS(=O)(=O)c1ccc(NC(=S)N2CCN(c3cccc(Cl)c3)CC2)cc1	9.55
COc1ccc(OC)c(CN2CCN(c3ccc(S(=O)(=O)N4CCCC4)cn3)CC2)c1	3.95
Cc1ccccc1NC(=O)CN1CCc2ccccc2C1	18.2
O=S(=O)(NC1CC1)c1ccc(S(=O)(=O)N2CCc3ccccc32)cc1	-5.99
COc1ccc(C2=CC3=C(Br)C(=O)C(C)(OC(=O)c4ccc(Cl)nc4)C(=O)C3=CO2)cc1 (centres unmarked)	9.53
CCn1c(SCC(=O)Nc2ccc(OC)c(OC)c2)nnc1-c1c[nH]c2ccccc12	6.41
CCOC(=O)N1CCN(S(=O)(=O)N2CCCC(C(=O)NCCCN3CCC(C)CC3)C2)CC1 (centres unmarked)	12.3
CCN1C(=O)CSC1=Nc1ccc(OC)cc1	17.5
COc1c(NC(C)=O)c2ccccc2c2ccccc12	11.4
Fc1ccc(NC(=S)NCCN2CCOCC2)cc1	7.95
CCc1ccc(S(=O)(=O)c2nnn3c2nc(N2CCOCC2)c2ccccc23)cc1	11.2
Cc1ccccc1NC(=O)CCNS(=O)(=O)c1ccc2c(c1)CCC(=O)N2	10.3
O=C(CN1C(=O)COc2ccccc21)Nc1ccc(N2CCOCC2)cc1	2.74

SMILES	hERG current change (%, negative = inhibition) at 1uM [%]
CCCC(=O)NC(=S)Nc1ccc(S(=O)(=O)Nc2ccc(OCC)cc2)cc1	7.39
N#C/C(=C\c1ccc(-c2ccccc2)cc1)c1nc(-c2ccco2)cs1	1.87
CCOc1ccc(S(=O)(=O)N2CCC(C(=O)NCC3CCCO3)CC2)cc1 (centres unmarked)	3.92
CCCC/C(O)=C1\C(=O)CCCC1=NCCc1c(C)[nH]c2ccc(OC)cc12	6.39
O=C(NC(NCc1ccccn1)(C(F)(F)F)C(F)(F)F)c1ccco1	-1.63
CC(C)Oc1cccc(NC(=O)c2cccn(Cc3ccc4c(c3)OC(F)(F)O4)c2=O)c1	7.37
CCOC(=O)c1ccc(N2C(=O)c3n[nH]c(C)c3C2c2ccc(OC)c(OC)c2)cc1 (centres unmarked)	9.99
CC(=O)NCCSC(=O)c1ccc(F)cc1	9.39
CCOC(=O)N1CCN(C(=O)CCc2ccc(S(=O)(=O)NC(C)(C)C)cc2)CC1	11.6
CC(=O)N1CCN(C(=O)CN2C(=O)NC(C)(c3ccc4ccccc4c3)C2=O)CC1 (centres unmarked)	9.92
C=CCSc1nnc2n(-c3ccccc3OC)c(=O)c3c4c(sc3n12)CCC4	-0.969
O=C(Nc1ccc(Cl)cc1)N1CCN(C(=O)C2CCCO2)CC1 (centres unmarked)	14.7
O.O=P1(N(CCCl)CCCl)NCCCO1 (centres unmarked)	15
COC(=O)COc1ccc(S(=O)(=O)Nc2ccccc2SC)cc1	-7.53
O=c1c2ccccc2[nH]c(=S)n1Cc1cccs1	-2.1
Cc1cc2ccccc2c(=O)n1CC(=O)NCC(=O)N1CCN(c2ccccc2)CC1	-0.938
COc1ccc(OCC(=O)NCCCCCCNC(=O)COc2ccc(OC)cc2)cc1	8.53
Cc1cccc(C(=O)NCCCNC(=O)c2ccccn2)c1	21.5
CCOc1ccc(S(=O)(=O)N2CCCC(C(=O)NCc3ccccn3)C2)cc1Cl (centres unmarked)	1.48

SMILES	hERG current change (%, negative = inhibition) at 1uM [%]
Cc1cccc(N2CCN(C(=O)N3CCOCC3)CC2)c1C	10.2
O=C(CCNC(=O)c1ccco1)Nc1ccc(Cl)c(C(F)(F)F)c1	10.5
NC(=S)NN=C1C2CC3CC(C2)CC1C3	1.69
COc1cc(/C=C(\C#N)C(=O)NCC2CCCO2)ccc1O (centres unmarked)	-2.15
Nn1c(SCC(=O)NCCCc2ccccc2)nnc1-c1cccnc1	9.27
CCOC(=O)C1=C(COC(=O)/C=C/c2cccc(Br)c2)NC(=O)NC1C (centres unmarked)	-7.77
Cc1cc(OC(C)C(=O)N(Cc2cccs2)C2CCS(=O)(=O)C2)ccc1Cl (centres unmarked)	4.5
CS(=O)(=O)NC1CCN(Cc2ccccc2)CC1	-0.401
CC(=O)N1CCN(Cc2nc3cc(NC(=O)c4ccc(Cl)cc4)ccc3n2C)CC1	-12.9
C=CCn1c(N)c(-c2nc3ccccc3n2C)sc1=S	7.71
O=C(CS(=O)CC(=O)N(c1cccc(F)c1)C(C(=O)NC1CCCCC1)c1ccco1)Nc1ccc(F)cc1 (centres unmarked)	5.02
CCC(C)(C)NC(=O)C(c1ccncc1)N(C(=O)c1sc(C)nc1C)c1ccc(F)cc1 (centres unmarked)	7.8
Cn1c(=O)c2c(nc(Oc3ccccc3Cl)n2C)n(C)c1=O	11.6
Cc1cc(=O)[nH]c(NN)n1	6.74
COC(=O)c1cn(S(=O)(=O)c2ccccc2)c2ccccc12	13
CCN(CC)S(=O)(=O)c1ccc(N2CCN(C)CC2)c(NC(=O)c2cc(=O)c3ccccc3o2)c1	0.504
COc1ccc(N2CCN(C(=O)CCS(=O)(=O)c3ccc4c(c3)CCN4C(=O)C3CC3)CC2)cc1	7.86
O=C(Nc1sccc1C(=O)NCc1ccco1)c1cccnc1	9.91
